# Some of the results follow. One pool of 16,384 single-stranded DNAs met each Rep nickase domain in vitro for 1 h at 37 °C with 3 µM enzyme; only the middle of the 90-letter strands is printed. A value is the log2 ratio of uncut reads to the pool without enzyme; the lower, the more was cut; hits are not called. Because reads are shares of a total, they shift together, so uncut sequences can rise above 0 when many others are cut.
# What was measured:
# Assay in all cases: uncleaved DNA left, log2 of reads against the no-enzyme library (log2 ratio); higher = less cleavage (more negative = more Rep cleavage of the k-mer); sequences stand for … in CTCGTCCG…ACCGGAGA
# [1] = test system: T1, Rep nickase domain of Muscovy duck circovirus
# T1 sequence (residues 1-111, tag not shown): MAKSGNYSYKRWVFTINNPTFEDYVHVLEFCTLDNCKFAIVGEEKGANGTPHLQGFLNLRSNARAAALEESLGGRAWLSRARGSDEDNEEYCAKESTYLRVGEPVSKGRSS
# Protocol: (§1)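 A pool of 90-nt single-stranded DNAs with seven random bases just before the constant AC of the nick site (name = the seven bases) was cut by 3 µM recombinant His6-SUMO-tagged Rep nickase domain (300 nM DNA, 50 mM HEPES pH 8.0, 50 mM NaCl, 1 mM MnCl2, 1 h, 37 °C, three replicates). Uncut DNA was amplified and sequenced.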
# [2] = test system: T2, Rep nickase domain of banana bunchy top virus
# T2 sequence (residues 1-94, tag not shown): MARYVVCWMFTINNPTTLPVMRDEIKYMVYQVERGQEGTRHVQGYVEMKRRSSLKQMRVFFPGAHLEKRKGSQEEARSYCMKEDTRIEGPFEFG
# Protocol: as §1
# [3] = test system: T3, Rep nickase domain of cabbage leaf curl virus
# T3 sequence (residues 1-116, tag not shown): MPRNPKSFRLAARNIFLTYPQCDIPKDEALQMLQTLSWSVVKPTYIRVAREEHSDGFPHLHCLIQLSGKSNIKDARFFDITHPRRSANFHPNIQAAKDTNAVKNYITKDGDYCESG
# Protocol: as §1
# [4] = test system: T4, Rep nickase domain of chickpea chlorotic dwarf virus
# T4 sequence (residues 1-124, tag not shown): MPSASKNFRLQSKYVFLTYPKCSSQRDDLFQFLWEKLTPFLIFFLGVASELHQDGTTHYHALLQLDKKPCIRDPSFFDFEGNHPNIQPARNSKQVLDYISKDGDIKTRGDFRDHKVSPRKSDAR
# Protocol: as §1
# [5] = test system: T5, Rep nickase domain of faba bean necrotic yellows virus
# T5 sequence (residues 1-98, tag not shown): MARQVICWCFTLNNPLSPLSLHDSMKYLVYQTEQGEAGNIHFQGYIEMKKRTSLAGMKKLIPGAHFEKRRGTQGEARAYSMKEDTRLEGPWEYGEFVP
# Protocol: as §1
# [6] = test system: T6, Rep nickase domain of maize striate mosaic virus
# T6 sequence (residues 1-117, tag not shown): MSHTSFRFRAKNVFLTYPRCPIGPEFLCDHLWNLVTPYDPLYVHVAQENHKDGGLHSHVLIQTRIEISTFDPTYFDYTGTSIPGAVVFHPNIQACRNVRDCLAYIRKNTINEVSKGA
# Protocol: as §1
# [7] = test system: T7, Rep nickase domain of porcine circovirus 2
# T7 sequence (residues 2-116, tag not shown): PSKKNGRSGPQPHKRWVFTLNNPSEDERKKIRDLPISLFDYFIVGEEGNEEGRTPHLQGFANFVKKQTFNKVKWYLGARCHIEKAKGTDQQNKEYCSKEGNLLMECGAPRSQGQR
# Protocol: as §1
# [8] = test system: T8, Rep nickase domain of tomato yellow leaf curl virus
# T8 sequence (residues 1-136, tag not shown): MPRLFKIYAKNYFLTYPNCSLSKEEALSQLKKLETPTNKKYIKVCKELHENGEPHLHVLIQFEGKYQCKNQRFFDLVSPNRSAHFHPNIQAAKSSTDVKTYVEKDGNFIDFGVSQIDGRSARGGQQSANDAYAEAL
# Protocol: as §1
# [9] = test system: T9, Rep nickase domain of wheat dwarf virus
# T9 sequence (residues 1-137, tag not shown): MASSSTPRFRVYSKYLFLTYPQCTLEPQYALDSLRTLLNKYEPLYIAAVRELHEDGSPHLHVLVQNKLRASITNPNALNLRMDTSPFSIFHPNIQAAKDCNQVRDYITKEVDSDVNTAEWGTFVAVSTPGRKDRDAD
# Protocol: as §1
Sequence,uncleaved DNA left (log2) [1],uncleaved DNA left (log2) [2],uncleaved DNA left (log2) [3],uncleaved DNA left (log2) [4],uncleaved DNA left (log2) [5],uncleaved DNA left (log2) [6],uncleaved DNA left (log2) [7],uncleaved DNA left (log2) [8],uncleaved DNA left (log2) [9]
TGCGGAC,0.00618,0.084,0.622,1.41,-0.0837,1.68,0.234,-0.0874,-0.018
TTATTGC,0.0733,0.0841,-0.578,0.582,0.192,-0.733,0.219,0.191,0.0545
GTCGCTT,0.0113,-0.148,0.25,0.302,0.00565,1.11,-0.0081,-0.214,-0.0606
AGGGACG,0.12,0.124,0.0287,0.299,0.0753,0.0617,0.265,0.0819,0.0758
GAGCCGT,0.00552,-0.000525,-0.0973,-0.0431,0.0328,-0.155,-0.0525,0.0851,0.143
ATATGAT,-0.127,0.0803,0.091,0.862,0.0737,1.54,-0.552,-0.196,0.103
TCTCAGT,0.144,0.0531,0.169,-0.101,0.0821,-0.454,0.0634,0.156,0.152
TGCAGCG,-0.0689,-0.00261,-0.861,0.264,0.0976,-0.795,0.0802,-0.0636,-0.12
TACCAAG,0.116,0.0682,-0.756,-0.738,-0.0335,-1.14,-0.107,0.0731,0.0164
GAACGGG,0.00837,0.00978,0.115,0.692,-0.118,0.553,0.0735,-0.2,-0.0527
ACCTTGT,-0.0637,0.0419,-0.68,-0.728,-0.0111,-1.23,-0.413,-0.00543,-0.199
CTGCTAT,0.174,0.00973,0.0933,-0.587,0.225,-0.559,0.134,0.263,0.08
CTCTCTT,-2.11,-0.222,-0.0653,-2.3,-0.00807,-0.453,-2.91,0.0118,0.00386
GGGCCGG,-0.0549,0.0762,0.849,1.86,0.0719,2.25,0.128,0.0199,0.0599
AATGCCC,-0.101,0.00551,-0.0353,0.0441,-0.0155,-0.18,-0.132,-0.0833,-0.0203
GAAGAAA,0.01,0.062,0.279,0.542,0.0365,0.805,0.106,0.063,0.149
ATATGAG,0.0788,-0.00489,-0.694,-0.0193,0.134,-0.828,0.235,0.0753,0.0464
TACAAAG,0.0107,0.0512,-0.886,-0.662,0.0386,-1.34,0.116,0.0409,-0.00763
GGATCAT,-0.0388,-0.0482,0.795,1.91,-0.0616,2.21,0.0515,-0.0919,0.0883
TGCGTGT,0.0175,-0.00849,-0.211,-0.487,-0.0762,-0.428,-0.0558,-0.082,-0.231
CTGCCTT,-0.0867,-0.181,-0.168,-1.55,-0.207,-0.225,-0.256,-0.0494,-0.0359
CAACAGT,0.0783,-0.0422,-0.625,-2.62,-0.0709,-0.909,-0.0244,0.0677,-0.0154
GCCAGCT,-0.145,-0.0965,-0.302,-0.217,-0.147,-0.477,0.0342,-0.21,-0.0409
TCACGTC,0.0392,-0.114,-0.0451,-0.474,-0.132,-0.809,-0.184,-0.135,-0.163
CGTTCAC,-0.157,-0.0464,0.0892,-0.294,-0.0132,-0.266,0.0197,0.0997,0.0259
TTGCGGT,0.088,0.0849,-0.585,-0.624,0.105,-0.881,0.152,0.0345,-0.148
ATATCGA,-0.0637,-0.0786,-0.477,-0.728,0.00964,-1.25,0.053,0.0731,0.0232
AGGACGT,0.0555,0.0282,0.786,1.9,-0.0335,2.06,0.183,0.000316,0.153
AGGGGAA,0.165,0.0148,0.407,1.38,-0.0393,1.71,0.112,-0.0447,0.126
TGAACGC,0.0422,0.068,-0.0196,-0.136,0.0979,-0.567,0.0594,0.104,0.0523

# Source: the supplement of paper PMC7826260
